# Experimental data as given in PubChem BioAssay AID624330 (Southern Research Specialized Biocontainment Screening …, 2012).
# Among all 340,000 compounds or so, about 2,100 (0.62%) were called active. The shares of active, inactive and inconclusive entries below differ from those in the screen.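 How the source made its calls: active means first-screen hits whose inhibition reached a set limit at any dose in the follow-up dose series; inconclusive means inhibition above the set first-screen limit but never retested; inactive means the rest.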
# Target: Rac GTPase-activating protein 1 (Homo sapiens) (UniProt Q9H0H5)
# Experiment: blockers of MgcRacGAP-driven Rac1 GTP hydrolysis – biochemical, ADP Hunter fluorescence, primary and confirmatory, confirmation (AID 624330);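 further: fluorescence reports GDP produced by GAP-driven GTP hydrolysis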
# Conditions: MgcRacGAP-stimulated Rac1 GTP hydrolysis, at 30 µM, stronger effect = higher value, GST-tagged Rac1 F28L mutant substrate
# Chain of UniProt Q9H0H5 (Q9H0H5 whole entry, looked up): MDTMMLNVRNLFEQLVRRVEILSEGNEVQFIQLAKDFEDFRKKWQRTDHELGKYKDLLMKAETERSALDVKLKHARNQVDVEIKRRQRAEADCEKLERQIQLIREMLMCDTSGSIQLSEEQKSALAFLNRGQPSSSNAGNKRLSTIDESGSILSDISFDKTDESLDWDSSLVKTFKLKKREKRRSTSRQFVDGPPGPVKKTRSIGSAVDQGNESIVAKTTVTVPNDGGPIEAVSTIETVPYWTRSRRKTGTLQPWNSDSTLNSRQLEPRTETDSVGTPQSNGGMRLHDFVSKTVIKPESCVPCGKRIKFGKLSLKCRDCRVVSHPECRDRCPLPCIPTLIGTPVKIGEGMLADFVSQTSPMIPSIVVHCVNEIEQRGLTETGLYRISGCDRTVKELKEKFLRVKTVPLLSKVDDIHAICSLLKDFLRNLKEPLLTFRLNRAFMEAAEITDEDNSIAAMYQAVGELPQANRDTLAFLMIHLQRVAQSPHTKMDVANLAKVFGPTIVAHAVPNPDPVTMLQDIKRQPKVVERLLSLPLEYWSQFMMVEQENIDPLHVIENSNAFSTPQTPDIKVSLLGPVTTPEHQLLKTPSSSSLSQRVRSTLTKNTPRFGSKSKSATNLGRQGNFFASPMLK
row,Structure (SMILES),inhibition
1,Cc1cccc(C)c1Nc1c(-c2ccccn2)nc2ccccn12,inconclusive: 77%
2,CC(=O)c1ccccc1OCCCCN1CCCCC1,inconclusive: 34.9%
3,CCOc1cc(/C=N/NC(=O)C(C)Sc2ccccc2)ccc1O (centres undefined),inconclusive: 33.1%
4,NC(=O)C[C@H](NC(=O)c1ccc(Cl)cc1)C(=O)OCc1ccccc1,inactive: 8.75%
5,O=c1oc2c(O)c(O)cc3c(=O)oc4c(O)c(O)cc1c4c23,inconclusive: 44%
6,COc1ccc(OCCCC(=O)Nc2cccc(C(C)=O)c2)cc1,inconclusive: 34.6%
7,O=C(NN=Cc1ccc(O)cc1)C(=O)NN=Cc1ccc(O)cc1,inactive: 28.3%
8,CCOc1ccc(NS(=O)(=O)c2ccc(N)cc2)cc1,inactive: 1.38%
9,Cn1ncc2c(Nc3ccc(O)cc3)nc(Cl)nc21,inconclusive: 80.1%
10,COc1cc(/C=N/NC(=O)c2ccccc2O)ccc1OC(=O)CC1SC(=O)NC1=O (centres undefined),inconclusive: 36.9%
11,CCSC1=N/C(=C\c2ccccc2)C(=O)N1,inactive: 7.65%
12,CC(C)(CN1CCOCC1)NS(=O)(=O)c1ccccc1,inactive: 1.36%
13,O=c1[nH]c(=S)c2[nH]c(=S)n(-c3ccccc3)c2[nH]1,inconclusive: 33.2%
14,O=c1[nH]c2ccc(NCc3ccc(F)cc3)cc2[nH]1,inconclusive: 83.3%
15,Cc1cc(O)c(C=O)c2c1C(=O)Oc1c(CO)c(O)c3c(c1O2)C(O)OC3=O (centres undefined),inconclusive: 80%
16,OCCN(CCO)c1nc(N2CCCCC2)c2nc(N(CCO)CCO)nc(N3CCCCC3)c2n1,inconclusive: 39.9%
17,CCC1CCCCN1C(=S)NC(=O)c1cc(Br)ccc1Cl (centres undefined),inactive: 4.56%
18,CC(=O)N1CCN(c2ccc(NCc3ccc(C)cc3)cc2)CC1,inconclusive: 108%
19,S=c1[nH]nc(-c2ccccc2)n1/N=C/c1cccs1,inconclusive: 35.1%
20,CCN(Cc1ccccc1)c1ccc(/C=N/N=C(N)N)cc1,inconclusive: 33.1%
21,O=C(O)c1ccc(-c2ccc(O)c(F)c2)cc1,inconclusive: 85.5%
22,CCSc1nc2c([nH]1)c(=O)n(C)c(=S)n2C,inconclusive: 34.4%
23,COc1ccc(Br)cc1CN(C)CC(=O)NCCc1ccc(S(N)(=O)=O)cc1,inactive: -1.98%
24,COc1ccc(C(=O)N2CCN(Cc3ccc(OC)c(OC)c3)CC2)cc1,inconclusive: 35.1%

row,Structure (SMILES),inhibition
1,COc1cc(/C=C/C(=O)OCC(=O)NC(=O)NC(C)(C)C)cc(OC)c1OC,inactive: 8.1%
2,CN(C)c1ccc(NC(=O)C2CCCN(S(=O)(=O)c3ccccc3)C2)cc1 (centres undefined),inconclusive: 32.8%
3,COc1ccccc1NC(=S)N/N=C/c1ccc(O)cc1,inconclusive: 48%
4,CC1(NC(=O)N2CCCCC2)CCS(=O)(=O)C1 (centres undefined),inactive: 6.45%
5,O=C(Cc1ccccc1)NCCSCc1ccccc1,inactive: 10.9%
6,CCNC(=S)N(CCc1c(C)[nH]c2ccc(OC)cc12)Cc1cccnc1,inactive: 12.7%
7,CN(C)c1ccc(NC(=O)CCN2CCN(c3ccccn3)CC2)cc1,inconclusive: 48.5%
8,COc1ccc(N2CCN(C(=O)c3ccc(C)c(NC(=O)c4ccco4)c3)CC2)cc1,inconclusive: 32.7%
9,O=C(O)/C=C/C(=O)Nc1ccc(O)cc1,inconclusive: 34.1%
10,CC(C)CC(=O)NC(=S)Nc1ccc(N2CCOCC2)c(Cl)c1,inactive: 2.66%
11,CCOC(=O)[C@H](O)[C@@H](O)c1cccc([C@H](O)[C@@H](O)C(=O)OCC)c1,inactive: 11.8%
12,COc1cccc(C(=O)NC(=S)Nc2ccc(N(C)C)cc2)c1,inconclusive: 33%
13,CCOc1ccc2c(c1)-c1c(ssc1=S)C(C)(C)N2,inconclusive: 50.2%
14,COc1cc([N+](=O)[O-])ccc1NC(=O)Oc1ccc(NC(C)=O)cc1,inconclusive: 85.9%
15,COc1ccc(N2CCN(c3ccc(C(=O)O)cc3[N+](=O)[O-])CC2)cc1,inactive: 25.5%
16,CCOC(=O)C1CCN(Cc2ccc(F)c(Br)c2)CC1,inconclusive: 32.9%
17,COc1ccc(NC(=O)CN(C)CC(=O)Nc2cccc(F)c2)cc1S(=O)(=O)N1CCCCC1,inconclusive: 34.1%
18,Cc1ccc(CNc2ccc(N3CCOCC3)cc2)cc1,inconclusive: 59.4%
19,ON=C1c2ccccc2-c2ccccc21,inactive: 4.05%
20,S=c1[nH]nc(-c2ccco2)n1/N=C/C(Cl)=C/c1ccccc1,inconclusive: 38.3%
21,Cc1ccc(C)c(NC(=O)COC(=O)CCC(=O)c2cccs2)c1,inactive: -3.89%
22,O=C(CCn1c(=O)oc2cc(Cl)ccc21)Nc1ccc(O)cc1,inconclusive: 56.2%
23,NS(=O)(=O)c1ccc(N=Cc2c(O)n(-c3nccs3)c(=O)c3ccccc23)cc1,inactive: 1.11%
24,Cc1ccc(C)c(N2CCN(CCN3CCCCC3)CC2)c1,inconclusive: 34.2%

row,Structure (SMILES),inhibition
1,CC(=O)Nc1ccc2c(c1)N(S(=O)(=O)c1cccs1)CCC2,inactive: 4.49%
2,CC(C)Cc1nc2sc3c(c2c(=O)n1N)CC(C)(C)OC3,inactive: -0.31%
3,COc1ccccc1OCC(=O)Nc1cc(C(F)(F)F)ccc1-n1cncn1,inactive: 0.07%
4,CCN(CC)CCCCN1c2ccccc2Sc2ccccc21,inconclusive: 77.4%
5,CNCc1cc(C)n(-c2cc(S(=O)(=O)N3CCOCC3)ccc2N2CCCC2)c1C,inconclusive: 33.2%
6,COc1cccc(CN2CCN(C(=O)CC(C)C)CC2)c1,inconclusive: 35.4%
7,CCN(CC)C(=S)SSC(=S)N(CC)CC,inconclusive: 71.4%
8,Cn1sc2ccccc2c1=O,inactive: 18%
9,Cc1cccc(-c2n[nH]c(=S)n2/N=C/C=C/c2ccco2)c1,inconclusive: 32%
10,Cc1cc(O)c(C=Nc2ccc(N3CCOCC3)cc2)c(C)c1Cl,inactive: 24.8%
11,Cc1ccc([C@H]2C[C@@H](O)[C@H](n3cc(COC(=O)c4ccccc4)nn3)CN2Cc2cccs2)cc1,inactive: -0.67%
12,CN(C)c1ccc(/C=C/c2ccc3c4ccccc4ccc3[n+]2-c2ccccc2)cc1,inconclusive: 127%
13,COc1ccc(/C=N/n2c(-c3cccs3)n[nH]c2=S)cc1,inconclusive: 32.5%
14,O=C(N/N=C/c1ccccc1O)NC12CC3CC(CC(C3)C1)C2,inactive: 7.17%
15,CCCCOC(=O)Nc1ccc(N(C)C)cc1,inconclusive: 63.3%
16,Cc1ccn2c(Nc3ccccc3C)c(-c3ccccn3)nc2c1,inconclusive: 42.4%
17,COc1ccc2c(C)cc(N3CCCCCC3)nc2c1,inconclusive: 32.4%
18,CCOc1ccc(C(=O)CCC(=O)N2CCN(c3ccc(O)cc3)CC2)cc1,inconclusive: 83.2%
19,Oc1ccc(-c2nc3ccccn3c2NCc2ccco2)cc1,inconclusive: 82.5%
20,O=C(CSc1nc2ccccc2c(=O)[nH]1)c1ccc(O)c(O)c1,inconclusive: 82.5%
21,Cc1cc(=O)oc(C)c1C(=O)NCCCN1CCN(c2ccccc2F)CC1,inactive: 6.67%
22,Cc1c2cc[n+](CCN3CCCCC3)cc2c(C)c2c1[nH]c1ccc(O)cc12,inconclusive: 33.5%
23,COc1ccc(NC(=O)COC(C)=O)cc1Cl,inactive: 3.23%
24,O=S(=O)(c1ccc(Cl)cc1)N1CCN(Cc2cccnc2)CC1,inactive: 2.76%

row,Structure (SMILES),inhibition
1,CCOc1cccc(/C=N/N2C(=O)CSC2=S)c1O,inconclusive: 44%
2,O=c1c(O[C@@H]2O[C@H](CO)C(O)C2O)c(-c2ccc(O)c(O)c2)oc2cc(O)cc(O)c12 (some centres undefined),inconclusive: 66.1%
3,O=C(CNCc1cccnc1)Nc1cc(C(F)(F)F)ccc1N1CCOCC1,inactive: 28.2%
4,Cc1ccc(C)c(OCCCN2CCCC2)c1,inactive: 19.9%
5,c1coc(-c2nc(-c3ccco3)c(-c3ccco3)nc2-c2ccco2)c1,inconclusive: 77.6%
6,COc1cc(CNc2ncc(-c3ccc(Cl)cc3)n2C)cc(OC)c1OC,inconclusive: 34.5%
7,COc1cc(CNc2ccc3[nH]c(=O)[nH]c3c2)ccc1OCc1ccc(F)cc1Cl,inconclusive: 36%
8,Cc1c(NC(=O)C(C)OC(=O)/C=C/c2ccccc2)c(=O)n(-c2ccccc2)n1C (centres undefined),inactive: 2.8%
9,CN(C)CCSc1nc(N)c2c3c(sc2n1)CN(C)CC3,inconclusive: 32.5%
10,CCN1CCN(C(=S)NCCc2ccccc2)CC1,inconclusive: 32.1%
11,O=C(O)CCC(=O)Nc1cccc(-c2nc3ccccc3o2)c1,inactive: -9.77%
12,C(=N\N=C\c1ccccc1)/c1ccccc1,inactive: 5.71%
13,CC1CCCCC1NCC#CCOc1ccc(Cl)cc1 (centres undefined),inconclusive: 35.8%
14,CN1CCN(S(=O)(=O)c2ccc(N)cc2)CC1,inactive: -0.77%
15,O=C(N/N=C/c1ccc(O)cc1)c1ccncc1,inconclusive: 32.9%
16,CCOc1ccc(OCCNCc2ccc(OC(C)C(=O)N(C)C)c(OCC)c2)cc1 (centres undefined),inconclusive: 32%
17,COc1ccc(OC)c(CNc2ncc(-c3cccc([N+](=O)[O-])c3)n2C)c1,inconclusive: 32.6%
18,C=CC(=O)Nc1cccc(N(C)c2ccnc(Nc3ccc(N4CCN(C)CC4)cc3)n2)c1,inconclusive: 37.1%
19,CC(C)c1ccc(Nc2nnc(SCC(=O)c3nnc(-c4ccccc4)o3)s2)cc1,inconclusive: 31.9%
20,Cc1ccc(Cn2c(C)nc3c(c2=O)c2nc4ccccc4nc2n3Cc2ccco2)cc1,inconclusive: 35.9%
21,COc1ccc2c(c1)c(C(=O)CNc1nc(C)cs1)c(C)n2C,inconclusive: 33.4%
22,COc1ccc(/C(C)=N/N2C(=O)c3ccccc3NC2c2ccc(O)c(OC)c2)cc1 (centres undefined),inconclusive: 33.5%
